Source: PubChem BioAssay AID1794842 (National Center for Advancing Translational Sciences (NCATS), 2023)
Among all 2,800 compounds or so, fewer than 10 were called active. Calls follow the shape of the dose curve; as a rule, active = well fitted curve in the direction sought with a large enough effect; inconclusive = small, poorly fitted or top-dose-only effect, or another doubt; inactive = no such curve, though single readings can be large or run the other way. The list shows a part of the results.

molecular target: Metallo-beta-lactamase type 2 (Klebsiella pneumoniae) (UniProt C7C422); assay: qHTS to identify inhibitors of the New Delhi Metallo-beta-lactamase (NDM): Meropenem screen against the machine-based learning selections.; also: % of control where 0% means no effect; conditions: Purified NDM-1, meropenem hydrolysis, absorbance 300 nm; at 38.4 µM (top of the series) unless noted
Sequence of UniProt C7C422 (C7C422 whole entry, looked up): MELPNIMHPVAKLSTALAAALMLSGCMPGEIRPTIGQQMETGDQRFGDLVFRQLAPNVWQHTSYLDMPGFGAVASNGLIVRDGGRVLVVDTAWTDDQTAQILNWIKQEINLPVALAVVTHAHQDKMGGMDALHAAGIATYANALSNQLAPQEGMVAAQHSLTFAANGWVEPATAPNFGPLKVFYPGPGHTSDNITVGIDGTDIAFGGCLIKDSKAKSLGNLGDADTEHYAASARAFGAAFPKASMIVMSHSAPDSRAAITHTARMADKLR
Procedure, shortened: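 Hydrolysis by 2 nM NDM-1 was followed by absorbance after >30 min compound preincubation in HEPES pH 7.0 buffer with 1 uM Zn2SO4. For nitrocefin (16.7 uM, 15 min, 485 nm) and meropenem (50 uM, 30 min, 300 nm), each substrate ran on separate plates.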

Activity change, negative = inhibition, inactive:
Cn1nc(CC2CCN(C(=O)c3cnon3)CC2)n(-c2ccccc2)c1=O 1.22%
Cc1oc(C(O)c2ccccc2F)nc1C(=O)Nc1ccc(C(N)=O)cc1 (stereo unspecified) 10.8% [at 57.5 µM]
C[C@@H](NC(=O)c1cccn1C)c1onc(-c2ccc(F)cc2)c1C(=O)O 14.6% [at 57.5 µM]
CC(C)CN(Cc1cccnc1)C1CN(C(=O)CC2CCCCC2)C1 0.143%
Cc1cc2ncc(C(=O)N3CCCn4nc(CCC(=O)O)cc4C3)c(=O)n2[nH]1 63.5%
CC(C)CS(=O)(=O)N[C@H](C)c1onc(-c2ccc(Cl)cc2)c1C(=O)O 4.76% [at 57.5 µM]
CN1CCC(N2CCC(O)(c3csc(CN4CCc5ccccc5C4)n3)CC2)CC1 -4.47% [at 57.5 µM]
Fc1ccc2cnc(N3CCC(N[C@H]4C[C@@H]5OCC[C@H]45)CC3)nc2c1 -0.366%
Nc1n[nH]c(CNc2cc(-c3ccc(F)cc3)nc3ccnn23)n1 9.82%
O=C(Cc1c[nH]c2ncc(-c3cccnc3)cc12)Nc1ccc(F)cc1 2.22% [at 57.5 µM]
O=C(NC1CC(=O)N(CCc2cccc(Cl)c2)C1)c1ccsc1 (stereo unspecified) -1.78%
C#CCN(C)Cc1nc(C2(O)CCN(C(=O)NCC=C)CC2)cs1 3.22% [at 57.5 µM]
Cc1cc(C)c(CNC(=O)c2nc(-c3ccc(CN(C)C)cc3)cc3[nH]ccc23)c(=O)[nH]1 1.61% [at 57.5 µM]
COCCOC1CN(C2CCN(C(=O)c3ccc(OC)cc3)CC2)C12CCCCC2 (stereo unspecified) -0.797%
CN(c1ccccc1)c1ccc2nnc(-c3cc(C(=O)NC4CCC(O)CC4)ccn3)n2n1 (stereo unspecified) -0.152%
COc1ccccc1C(=O)Nc1ccc([C@H]2OCC(=O)N(Cc3cccnc3)[C@@H]2CO)cc1 8.72%
CCOCC(=O)N1CCCC(c2cc(N3CCOCC3)nc(C)n2)C1 (stereo unspecified) 0.366%
CN(Cc1cccc(C(F)(F)F)c1)Cc1nc(-c2ccccc2)no1 -5.66%
O=C(c1cccc(Cl)c1)N1C[C@@H](CO)[C@H](c2ccccn2)C1 -2.41%
CC(=O)N1CCCC(C(=O)NCCc2csc(-c3ccncc3)n2)C1 (stereo unspecified) 2.86%
C[C@]1(O)CCN(C(=O)CCc2c[nH]c3ccccc23)C[C@@H]1O -2.65%
O=C(Cc1c[nH]c2ncc(-c3cccc(Cl)c3)cc12)NCc1cccnc1 5.32% [at 57.5 µM]
CC1=C[C@@H](CN2CCN(c3cnccn3)CC2)[C@H](C(C)C)C[C@H]1Cc1nnc(-c2cccnc2)o1 15.1%
COCCN[C@@H]1C[C@@H]2c3[nH]c4ccccc4c3C[C@@H](C(=O)OC)N2[C@H](c2ccc(C(C)C)cc2)C1 0.489%
COc1ccc(CN2C(=O)[C@@H]3C[C@@H](CN3CC3CC3)Oc3ccccc32)cc1 -1.86% [at 57.5 µM]
CC(C)CCNC1(Cc2cc(CN3CCOCC3)on2)COC1 8.33% [at 57.5 µM]
COc1ccc(C(=O)N2CCc3nc(N)nc(N4CCCC4)c3CC2)o1 4.91%
Cn1ccnc1CN[C@@H]1CO[C@H](CNC(=O)CC(C)(C)C)[C@H]1O 28.5% [at 57.5 µM]
N#Cc1cccc(CN2CCOC[C@H]2c2ncc(-c3ccc(C(F)(F)F)cc3)[nH]2)c1 2.14% [at 57.5 µM]
Cc1nn2c(c1-c1ccccc1C(N)=O)N(CCCc1ccccc1)CCC2 51.6% [at 57.5 µM]
CCOc1ccc(C(=O)NC2CCCN(c3cc(-c4ccc(OC)cc4)[nH]n3)C2)cc1OCC (stereo unspecified) 2.21%
C[C@@]12CO[C@@H](Cc3ccccc3)O[C@@H]1CC[C@]1(C)C2CC[C@@H](O)[C@H]1CC(=O)NCc1cc(F)cc(F)c1 (stereo partly specified) 0.763%
CCc1noc(-c2cccn3c(CNC(=O)Cc4c[nH]c5ccccc45)nnc23)n1 0.399%
O=C1Cc2c(-c3ccc4ccccc4c3)n[nH]c2CN1Cc1ccccn1 7.75% [at 57.5 µM]
COCCNC(=O)C[C@@H]1C[C@H]2O[C@H](CNCc3cnccc3C(F)(F)F)[C@@H](O)[C@H]2O1 1.44% [at 57.5 µM]
CN1CCC(N2CC[C@H](c3nnc(-c4ccc(N(C)C)cc4)o3)C2)CC1 4.8% [at 57.5 µM]
COCCOc1ccnc(-c2noc([C@@H]3CCCN3Cc3cccnc3)n2)c1 2.36% [at 57.5 µM]
Cc1ccc(C2(O)CCN(C(=O)c3ccccc3-c3nn[nH]n3)CC2)nc1 19.2%
Nc1nc(C2CC(O)C2)cc(N2CCC(OCc3ccccn3)CC2)n1 (stereo unspecified) 3.6e-06%
COc1cccc([C@@H]2CCN(Cc3cn[nH]c3C(=O)O)C[C@H]2O)c1 9.53%
C#CCN(C)C(=O)c1c(-c2ccc(OC)cc2)noc1[C@H](C)O 12.3% [at 57.5 µM]
O=C(O)[C@]12CCCN[C@@H]1CCN(Cc1cnc(-c3ccccn3)nc1)C2 23.1%
COCCN1C(=O)CCc2cc(NC(=O)c3ccc(C)c(C)c3)ccc21 10.8%
COc1ccc(CN(Cc2ccc(OC)cc2)[C@@H]2CO[C@H](CNC(=O)CC(C)(C)C)[C@H]2O)cc1 0.0317%
CC(=O)NC[C@@H]1C=C(C)[C@H](CC(=O)N2CCCC2)C[C@H]1C(C)C 1.7% [at 57.5 µM]
CC1(C)C[C@H](NC(=O)c2ccccc2)[C@@]2(CCC(=O)NCc3cccnc3)CC[C@](C)(O)C[C@@H]12 0.171%
O=C1Cc2c(-c3cccc4ccccc34)n[nH]c2CN1CCc1ccncc1 15.1% [at 57.5 µM]
CN1C[C@H](C(=O)NCc2ccccc2)C[C@H]1c1cccc(C(F)(F)F)c1 -1.01% [at 57.5 µM]
CC(C)(O)C#Cc1ccc(C(=O)N2CCC(O)(c3ccccn3)CC2)cc1 0.364%
c1ccc(-c2nc3c(c(NCC4OCCc5ccccc54)n2)CCNCC3)nc1 (stereo unspecified) 68.4%
CCCOc1cc(C)c2c(c1C)C[C@H]([C@H](C)C(=O)NCCOC)CC2 4.67% [at 57.5 µM]
COc1ccccc1-c1ccnc(N[C@H]2CO[C@H]3[C@@H]2OC[C@@H]3NS(=O)(=O)c2ccc3ccccc3c2)n1 -2.23%
COc1cc(CNC(=O)CCC2CCN(S(=O)(=O)c3ccccc3)CC2)cc(OC)c1 -0.0165%
COCCNc1ncccc1-c1cc(-c2ccccc2)nc2c(C)noc12 -0.683% [at 57.5 µM]
CCC(NC(=O)c1cc(Cn2ccc3ccccc32)[nH]n1)c1ncccc1C (stereo unspecified) -0.91%
O=C(O)[C@H]1C[C@@H](C(=O)NCc2ccccn2)CN(CC2CC2)C1 22.1%
O=C([C@H]1C[C@@H](O)[C@H](O)[C@@H]2N=C(Nc3ccc(Cl)cc3)S[C@@H]21)N1CCOCC1 -0.168% [at 57.5 µM]
CNC(=O)[C@H]1C[C@H](Oc2cccnc2)CN1S(=O)(=O)c1ccc(OC)cc1 1.89%
OCC#Cc1ccc(CN2CCC3(CCNCC3)C2)cc1 9.07%
COc1ccc(-c2cn3c(n2)CO[C@@H](CNCc2ccc(Cl)cc2)C3)cc1 2.33% [at 57.5 µM]
C[C@@H](NC(=O)c1ccccn1)c1onc(-c2ccc(Cl)cc2)c1C(=O)O 60.9% [at 57.5 µM]
O=C(NCc1ccccc1)O[C@H]1COCCN(c2nc3ccccc3o2)C1 0.432% [at 57.5 µM]
COc1ccc(-c2cnc3[nH]cc(CC(=O)Nc4ccncc4)c3c2)cc1 6.31% [at 57.5 µM]
COc1ccc(NC(=O)N[C@H]2CO[C@H]3[C@@H]2OC[C@@H]3n2nnnc2-c2ccc3c(c2)OCO3)cc1 4.93%
COc1cccc(NC(=O)CCc2ccc3c(c2)CN(S(C)(=O)=O)CCO3)c1 0.177%
O=C(C1CC1)N1CCC2(CC1)CCN(CCc1ccccc1)c1ccccc1O2 -0.12%
NC(=O)CN1CCC2(CC1)CCN(C(=O)Cc1cnc[nH]1)CC2CO (stereo unspecified) -1.94%
O=C(O)c1ccnc(-c2ccnc(NCCCN3CCCC(O)C3)n2)c1 (stereo unspecified) 34.1%
O=C(COc1ccccc1)N[C@H]1CO[C@H]2[C@@H]1OC[C@@H]2n1nnnc1Oc1ccc2c(c1)OCO2 -0.427%
COC[C@H]1C[C@@H](NC(=O)c2cc(C(C)(C)C)oc2C)[C@H](O)[C@@H]1O 11.3% [at 57.5 µM]
CC(O)c1cc2n(n1)CCN(C1CCN(C(=O)c3cnccn3)CC1)C2 (stereo unspecified) 2.84%
Cc1ncsc1C(=O)N1CCCC(c2ccc(C(=O)O)cc2)C1 (stereo unspecified) -2.23%
CC1(C(=O)NCCCn2ccnc2)CCCc2cnc(Nc3ccccc3)nc21 (stereo unspecified) 3.8% [at 57.5 µM]
COc1ccc(CN2C(=O)[C@@H]3C[C@@H](O)CN3C3(CN(C4CCC4)C3)C2=O)cc1 1.51% [at 57.5 µM]
COc1ccc(C(=O)N[C@H]2CO[C@H]3[C@@H]2OC[C@@H]3n2cc(CN(C)Cc3ccccc3)nn2)cc1 -0.423%
CN1C[C@@H](NS(=O)(=O)c2ccc(Cl)cc2)C[C@H]1c1nc(-c2ccc(F)cc2)no1 0.972%
